Reference: PubChem BioAssay AID624417 (National Center for Advancing Translational Sciences (NCATS), 2012)
The campaign covered roughly 410,000 compounds. About 6,400 (1.6%) were called active. Inconclusive means that the source gave no clear call. Such entries were picked first, then a sample of the others. Calls come from the whole dose curve; as a rule, active = well fitted inhibition curve with a large enough effect; inconclusive = small, poorly fitted or top-dose-only effect; inactive = no such curve, though single readings can be large or run the other way. Potencies of inconclusive entries are left out as doubtful fits.

target: Glucagon-like peptide 1 receptor (Homo sapiens) (UniProt P43220); assay: qHTS of GLP-1 Receptor Inverse Agonists (Inhibition Mode); conditions: HEK293 GLP-1R CRE-luciferase, luminescence, 24 h, GLP-1R form is constitutively active; activity change, negative = inhibition: at 38.3 µM (top of the series) unless noted; note: nearly all actives have a fitted effect of over 55% in size
Outline: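 Seeding at 200 cells/uL, 12 h culture, 24 hr compound treatment, then luciferase reagent and a luminescence read; cells are HEK293 stably expressing a constitutively active GLP-1R plus cAMP-responsive luciferase.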
% is set by controls: 0 for no effect and ±100 for the full control effect; potency is the fitted concentration of half-maximal effect; tags give direction and shape of the fitted curve.

Chain of UniProt P43220 (P43220 whole entry, looked up): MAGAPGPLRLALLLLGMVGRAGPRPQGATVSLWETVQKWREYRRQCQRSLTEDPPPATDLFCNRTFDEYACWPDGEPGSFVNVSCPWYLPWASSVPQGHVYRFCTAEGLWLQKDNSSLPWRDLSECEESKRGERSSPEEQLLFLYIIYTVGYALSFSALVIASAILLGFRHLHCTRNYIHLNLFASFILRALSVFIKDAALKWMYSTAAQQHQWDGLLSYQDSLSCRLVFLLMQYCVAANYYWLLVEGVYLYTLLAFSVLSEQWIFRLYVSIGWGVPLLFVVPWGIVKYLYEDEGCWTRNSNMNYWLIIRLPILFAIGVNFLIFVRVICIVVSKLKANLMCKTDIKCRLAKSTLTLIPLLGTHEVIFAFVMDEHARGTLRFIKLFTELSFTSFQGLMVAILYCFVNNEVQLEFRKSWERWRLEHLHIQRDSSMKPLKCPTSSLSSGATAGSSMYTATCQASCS

Row | SMILES | activity change, negative = inhibition | Potency
1 | CCCCCn1c(CCCNC(=O)c2ccc(Cl)cc2)nc2ccccc21 | inactive: -15.4% | –
2 | O=C(Nc1ccccc1Cl)c1cc(C2CCCCN2C(=O)c2cccs2)on1 (configuration not stated) | – | inconclusive [inhibitor, partial curve, poor fit]
3 | COC(=O)c1ccccc1NC(=O)Nc1cc(C)ccn1 | inactive: 4.51% | –
4 | Nc1nc(-c2ccc(Cl)cc2)c(S(=O)(=O)c2ccccc2)s1 | – | active: 8.91 µM
5 | CCOc1ccccc1NC(=O)CN(c1ccc(OC)c(OC)c1)S(=O)(=O)c1ccc(C)cc1 | inactive: -6.5% | –
6 | CC(=O)CC1c2cc(F)ccc2C=C(c2ccsc2)N1c1ccc(-c2ccc(C(N)=O)cc2)cc1 (configuration not stated) | – | inconclusive [inhibitor, single point]
7 | CCn1c(C(=O)O)c(CC(=O)Nc2cccc(C(F)(F)F)c2)c2ccccc21 | – | inconclusive [inhibitor, single point]
8 | c1ccc2c(c1)ccn1c(Cc3ccsc3)c(C3CCCCC3)nc21 | – | inconclusive [inhibitor, single point]
9 | Cc1cc(-c2csc3ncnc(N4CCN(C)CC4)c23)cc(C)c1C | – | inconclusive [inhibitor, partial curve, poor fit]
10 | CCCc1ccc2oc(C(=O)NCCCN3CCOCC3)c(C)c2c1 | – | inconclusive [inhibitor, single point]
11 | Fc1ccc(C(c2nnnn2C2CCCC2)N2CCc3ccccc32)cc1 (configuration not stated) | – | inconclusive [inhibitor, single point]
12 | Cc1ccc(NC(=O)C2CCCN(C(=O)c3ccc(Cl)cc3)C2)cc1C (configuration not stated) | – | inconclusive [inhibitor, single point]
13 | O=C(N/N=C/c1ccco1)c1cc([N+](=O)[O-])cc([N+](=O)[O-])c1 | inactive: 3.89% | –
14 | COc1ccc(-c2cncnc2-c2ccc(OC)cc2O)cc1 | – | inconclusive [inhibitor, partial curve]
15 | Cc1ccc(C)c(N2CCN(S(=O)(=O)c3c(C(=O)N4CCC(C)CC4)c(C)n(C)c3C)CC2)c1 | – | inconclusive [inhibitor, single point]
16 | C=Cc1ccc(CC2(C)C(=O)Nc3ccc(-c4cccnc4)cc32)cc1 (configuration not stated) | – | inconclusive [inhibitor, partial curve, poor fit]
17 | CC(C)N(C(=O)[C@H]1C[C@H](CC(=O)NCc2cccc(C(F)(F)F)c2)C(=O)N2CCc3c([nH]c4cc(CCC(=O)N(C)C)ccc34)[C@]12C)C(C)C | – | inconclusive [inhibitor, single point]
18 | Cc1sc(NC(=O)c2ccccc2)c(C(c2ccc(Cl)cc2)N2CCN(CCO)CC2)c1C (configuration not stated) | – | inconclusive [inhibitor, partial curve, poor fit]
19 | Cc1cc(C)cc(NCc2cc(=O)oc3cc(-c4ccccc4)c(O)cc23)c1 | – | inconclusive [inhibitor, single point]
20 | CC(C)(C)CNC(=O)c1cc2c(Br)ccc(Br)c2nc1N | – | inconclusive [inhibitor, full curve, poor fit]
21 | C=CCC[C@@H](CCCCC)OC(=O)/C=C/[C@@H](O)[C@H](O)C[C@H](O)CC=C | – | inconclusive [inhibitor, partial curve]

Row | SMILES | activity change, negative = inhibition | Potency
22 | Cc1c([N+](=O)[O-])cc(C(=O)NCc2ccc(F)cc2)cc1[N+](=O)[O-] | – | inconclusive [inhibitor, single point]
23 | Nc1nonc1-n1nnc(C(=O)N/N=C/c2ccncc2)c1CSc1ccccc1 | – | inconclusive [inhibitor, partial curve, poor fit]
24 | COc1ccc(-c2nnc(SCC(=O)NC(=O)NCc3ccccc3)o2)cc1 | inactive: 2.49% | –
25 | CCN(CCCCCN(C)C)Cc1cc2ccccc2o1 | – | inconclusive [inhibitor, partial curve, poor fit]
26 | Cc1ccc(-n2cc(CNCCCN3CCCC3=O)c(-c3ccc(F)cc3)n2)cc1 | – | inconclusive [inhibitor, partial curve, poor fit]
27 | Cc1ccc(Cl)cc1N1CCN(C(=O)c2noc(C(C)C)c2[N+](=O)[O-])CC1 | – | inconclusive [inhibitor, partial curve, poor fit]
28 | Cc1cccc(NC(=O)Cn2c(=O)n(CCCCCC(=O)NCc3ccccc3)c(=O)c3sccc32)c1 | – | inconclusive [inhibitor, single point]
29 | O=C(Nc1ccnn1C1CCN(Cc2ccccn2)CC1)c1cccc(F)c1 | – | inconclusive [inhibitor, single point]
30 | Cc1ccc(Cl)cc1NC(=O)CNCC(c1ccccc1)N(C)C (configuration not stated) | inconclusive: -60.1% [inhibitor] | –
31 | Cc1cccnc1NC(=O)Cn1nc(-c2ccccc2)oc1=S | – | inconclusive [inhibitor, single point]
32 | CN(C)CCCNC(=O)c1ccc(CN(c2ccccc2)S(C)(=O)=O)cc1 | – | inconclusive [inhibitor, single point]
33 | NC(=O)N/N=C/c1ccc2cccc(OCc3ccccc3)c2n1 | inactive: 49.3% | –
34 | CCN(Cc1ccccc1)c1ncnc2c1cnn2-c1ccc(F)cc1 | – | inconclusive [inhibitor, single point]
35 | CCOc1ccc(N(CC(=O)NC2CCCC2)C(=O)CCC(=O)Nc2nccs2)cc1 | – | inconclusive [inhibitor, partial curve, poor fit]
36 | COc1ccc(C(NC(=O)C2CCN(CCCc3ccccc3)CC2)c2cccs2)cc1 (configuration not stated) | – | inconclusive [inhibitor, partial curve, poor fit]
37 | COc1cccc(Nc2nc(-c3ccccc3)nc3ccccc23)c1 | – | inconclusive [inhibitor, partial curve, poor fit]
38 | Cc1cccc2cc(CN(Cc3cccs3)Cc3nnnn3Cc3ccccc3)c(=O)[nH]c12 | – | inconclusive [inhibitor, partial curve, poor fit]
39 | Cc1cccc(C(=O)NC(=S)Nc2ccc(Cc3ccncc3)cc2)c1 | – | inconclusive [inhibitor, single point]
40 | O=C(NCc1ccc(F)cc1)C1CCCN1S(=O)(=O)c1cccc2nsnc12 (configuration not stated) | – | inconclusive [inhibitor, single point]
41 | CC(C)NC(=O)c1n[nH]c(=O)c2ccccc12 | inactive: 22.8% | –
42 | O=C1CN(C(=O)COC(=O)c2ccccc2NCc2ccco2)c2ccccc2N1 | – | inconclusive [inhibitor, single point]

Row | SMILES | activity change, negative = inhibition | Potency
43 | O=C(c1ccc(Cl)cc1)N1CCN(CCc2ccncc2)CC1 | – | inconclusive [inhibitor, partial curve, poor fit]
44 | CCOc1ccc(-n2cc(C(=O)N3CCC(C)CC3)c3cc(OC)c(OC)cc3c2=O)cc1 | – | inconclusive [inhibitor, full curve, poor fit]
45 | COc1ccc(CN2C[C@@H](CO)O[C@@H](n3cnc4c(NCc5ccco5)ncnc43)C2)cc1 | inactive: 21.5% | –
46 | Cc1ccc2cc3cc(C(=O)N4CCCCC4C)oc3nc2c1 (configuration not stated) | – | inconclusive [inhibitor, full curve]
47 | COc1cccc(-c2sc3cc(OC)c(OC)cc3c2-c2ccc(OCCN3CCCCC3)cc2)c1 | – | inconclusive [inhibitor, partial curve, poor fit]
48 | Cc1ccccc1N1CCN(C(=O)c2ccccc2NC(=O)c2ccccc2C(=O)O)CC1 | inactive: -10% | –
49 | Cc1ccc2nc(-c3ccc(N4C(=NC(=O)CCC(=O)O)SC5CS(=O)(=O)CC54)cc3)sc2c1 (configuration not stated) | inactive: 5.55% | –
50 | CC1CCCN(C(=O)CCCn2c(=S)[nH]c3ccccc3c2=O)C1 (configuration not stated) | inactive: 8.81% | –
51 | CCOc1cccc(CN(CC)CC2CCCN(CCc3cccc(OC)c3)C2)c1O (configuration not stated) | – | inconclusive [inhibitor, partial curve, poor fit]
52 | O=S(=O)(c1cccs1)N1CCC(CO)(Cc2cccc(F)c2)CC1 | – | inconclusive [inhibitor, partial curve, poor fit]
53 | CCN(CC(=O)NC(=O)NCc1ccccc1)Cc1ccccc1 | – | inconclusive [inhibitor, full curve, poor fit]
54 | CC1Cc2ccccc2N1C(=O)CSc1nn2c(=O)c(C(C)(C)C)nnc2s1 (configuration not stated) | – | inconclusive [inhibitor, partial curve, poor fit]
55 | CCN(CC)c1nc(N)c2c(N)nc(OC)cc2c1C#N | inactive: 22.6% | –
56 | O=C(NCCN1C(=O)S/C(=C/c2ccccc2)C1=O)C1CCCN1C(=O)c1cccs1 (configuration not stated) | – | inconclusive [inhibitor, partial curve, poor fit]
57 | COc1ccc(S(=O)(=O)N2CCCCCC2)cc1C(=O)N(C)CCOc1ccccc1 | – | inconclusive [inhibitor, single point]
58 | ClC(Br)=C(n1cnc2ccccc21)n1cnc2ccccc21 | inactive: -11.3% | –
59 | COc1c(CC=C(C)C)cc(C2CC(=O)c3c(O)cc(O)cc3O2)c(CC=C(C)C)c1O (configuration not stated) | – | inconclusive [inhibitor, partial curve, poor fit]
60 | C=CCNC(=O)c1onc(CSc2cccc(OC)c2)c1C(=O)O | – | inconclusive [inhibitor, single point]
61 | COc1ccc(CNC(=O)C2CCCN(Cc3nc(-c4cccc(C)c4)oc3C)C2)cc1 (configuration not stated) | – | inconclusive [inhibitor, partial curve, poor fit]
62 | Cc1ccc2c(cnn2C(=O)CCCC(=O)NCc2ccc(Cl)cc2)c1 | – | inconclusive [inhibitor, single point]
